# Reference: PubChem BioAssay AID651820 (National Center for Advancing Translational Sciences (NCATS), 2012)
# Several values for one entry are separate records, joined by “and”; a condition that tells them apart may be missing. Equal entries are not always repeated. Among all 340,000 compounds or so, about 12,000 (3.5%) were called active. The shares of active, inactive and inconclusive entries below differ from those in the screen. The call rests on the fitted dose curve; in most records, active means well fitted inhibition curve with a large enough effect; inconclusive means small, poorly fitted or top-dose-only effect, or another doubt; inactive means no such curve, though single readings can be large or run the other way. A potency beside an inconclusive call is a rough fit, not a confirmed value.
# Test: qHTS Assay for Inhibitors of Hepatitis C Virus (HCV)
# Details: Huh7.5.1 HCVcc-Cre (HCVcc is cell-culture hepatitis C virus) infection, luciferase reporter, 44 h; activity change, negative = inhibition: at 41.8 µM (top of the series) unless noted
# Method in brief: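 Seed cells (1,000/well) for 4 h; treat with compound and infect with HCVcc-Cre, moi about 0.5. Incubate 44 h, then detect luciferase activity.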
# On the % scale 0 is the no-effect control and ±100 the full control effect; potency means the concentration at half of the fitted maximal effect; tags describe the fitted curve by direction and shape.
SMILES,Potency,"activity change, negative = inhibition"
CCOc1cc(CNCc2ccncc2)cc(Br)c1OCc1ccccc1F,active: 7.94 µM,–
CCc1cc(C(=O)N2CCCC(CCC(=O)N3CCN(c4ccccn4)CC3)C2)no1 (configuration not stated),"inconclusive: 31.6 µM [inhibitor, single point]",–
COc1cc(C(=O)NCCC(=O)N2CCC3(CC2)NCCc2[nH]cnc23)cc(OC)c1OC,"inconclusive: 31.6 µM [inhibitor, single point]",–
COc1ccc2[nH]c(=O)c(CNc3ccc(C)cc3C)cc2c1,inactive,–
CCOc1cccc(-c2c(C(=O)N/N=C(\C)c3ccccn3)nnn2-c2nonc2N)c1,active: 11.2 µM,–
Nc1cc(=O)[nH]c(SCC(=O)N2N=C(c3ccc4ccccc4c3)CC2c2ccccc2)n1 (configuration not stated),"inconclusive: 10 µM [inhibitor, partial curve]",–
CC1=C(C(=O)OCc2ccccc2)C(c2ccc(C)o2)C2=C(CCCC2=O)N1 (configuration not stated),"inconclusive: 11.2 µM [inhibitor, single point]",–
O=C(NCc1n[nH]c(=O)c2ccccc12)C1CC(=O)N(c2ccccc2)C1 (configuration not stated),"inconclusive: 14.1 µM [inhibitor, single point]",–
O=C(Nc1ccc(-c2csc(Nc3ccc(Cl)cc3)n2)cc1)c1ccccc1,"inconclusive: 3.16 µM [inhibitor, full curve]",–
CCN(Cc1ccccc1)C(=O)Cn1cc2c(n1)CCCC2,inactive,–
CCOc1cc(/C=C2\COc3ccccc3C2=O)ccc1OCC(=O)N(C)C,"inconclusive: 31.6 µM [inhibitor, single point]",–
CCOc1ccc(C(=O)Nc2ccc(-c3nc4ccccc4[nH]3)cc2)cc1[N+](=O)[O-],"inconclusive: 3.98 µM [inhibitor, partial curve] and inconclusive: 3.55 µM [inhibitor, full curve, poor fit]",–
COC(=O)c1cccc(NC(=O)Nc2ccc(Cl)cc2)c1,–,inconclusive: -66.3% [inhibitor]
Cc1ccc(OCCCCc2c(C)n[nH]c2C)cc1,"inconclusive: 31.6 µM [inhibitor, single point]",–
Cc1ccc(OCC(=O)N2CCc3ccccc3C2)c(C)c1,"inconclusive: 12.6 µM [inhibitor, partial curve]",–
Cc1ccc(-c2nnn(CC(=O)N(c3ccccc3)C(C(=O)NCC3CCCO3)c3ccc(Cl)cc3)n2)cc1 (configuration not stated),inactive,–
Cc1ccc(NC(=O)CCNC(=O)c2ccccc2)cc1F,inactive,–
O=C(c1ccc([N+](=O)[O-])s1)N1CCN(c2ccccn2)CC1,"inconclusive: 12.6 µM [inhibitor, single point]",–
Cc1cc(C)n(-c2cc(N3CCN(S(=O)(=O)c4ccc5ccccc5c4)CC3)ccc2[N+](=O)[O-])n1,"inconclusive: 6.31 µM [inhibitor, partial curve, poor fit]",–
CC(=O)c1ccc(OCCCC(=O)NNC(=O)c2ccccn2)cc1,"inconclusive: 17.8 µM [inhibitor, single point]",–
CCS(=O)(=O)Nc1ccc(-c2cc(-c3ccccc3)c3cc(C)ccc3n2)cc1,"inconclusive: 5.62 µM [inhibitor, partial curve]",–

SMILES,Potency,"activity change, negative = inhibition"
COCCCNC(=S)N1CCN(c2nc(-c3ccc(F)cc3)cs2)CC1,active: 10 µM,–
Cc1cc(C)cc(NCCC#N)c1,inactive,–
Cc1ccc(CNC(=O)C2CCCN(Cc3cnn(-c4ccccc4)c3-n3cccc3)C2)cc1 (configuration not stated),"inconclusive: 11.2 µM [inhibitor, single point]",–
COCCNC(=S)N/N=C/c1c2ccccc2cc2ccccc12,"inconclusive: 22.4 µM [inhibitor, single point]",–
O=C(Cn1ncc2c3ccccc3n(Cc3ccc(Cl)cc3)c2c1=O)NCCCN1CCCC1=O,inactive,–
C=C(C)C(=O)O[C@H]1C/C(C)=C\C(=O)/C=C(\C)[C@H](O)[C@@H]2OC(=O)C(=C)[C@@H]21,"inconclusive: 31.6 µM [inhibitor, single point]",–
Cc1ccc2c(N)c(C(=O)N(c3ccccc3)c3ccccc3)sc2n1,"inconclusive: 31.6 µM [inhibitor, single point]",–
CN1CCc2c(sc3nc(SCC(=O)NCc4ccco4)n(-c4ccccc4)c(=O)c23)C1,"inconclusive: 22.4 µM [inhibitor, single point]",–
Cc1ccccc1OCC(=O)Nc1ccc(Cc2ccncc2)cc1,"inconclusive: 31.6 µM [inhibitor, single point]",–
COc1cccc(NC(=O)COC(=O)/C=C/c2c(C)nn(-c3ccccc3)c2C)c1,"inconclusive: 12.6 µM [inhibitor, partial curve]",–
Brc1ccc(Oc2nnnn2-c2ccccc2)cc1,inactive,–
COc1ccc([N+](=O)[O-])cc1NC(=O)C(C)Sc1ccccc1 (configuration not stated),"inconclusive: 11.2 µM [inhibitor, partial curve]",–
CC(C)OCCCNc1ncc2c(n1)CC(c1cccs1)CC2=O (configuration not stated),inactive,–
COc1ccc(CCNC(=O)C2CCN(S(=O)(=O)c3ccc4nc5c(c(C(=O)O)c4c3)CCCC5)CC2)cc1OC,inactive,–
Cn1c(C(=O)N2CCN(C(=O)c3ccco3)CC2)cc2c(=O)n3ccccc3nc21,"inconclusive: 2.82 µM [inhibitor, single point]",–
Cc1occc1C(=O)N/N=C/c1cccnc1,inactive,–
CCCCCc1cc(=O)oc2c(C(CCN(CC)CC)c3cc(OC)c(OC)c(OC)c3)c(OC)cc(OC)c12 (configuration not stated),"inconclusive: 22.4 µM [inhibitor, single point]",–
CC(OC(=O)CN1C(=O)NC2(CCCC2)C1=O)C(=O)c1ccccc1 (configuration not stated),inactive,–
CCOc1ccc(N2CC(C(=O)Nc3cccc(S(=O)(=O)N4CCCCC4)c3)CC2=O)cc1 (configuration not stated),"inconclusive: 6.31 µM [inhibitor, partial curve]",–
c1cc2c(cc1[C@H]1OC[C@H]3[C@@H]1CO[C@H]3c1ccc3c(c1)OCO3)OCO2,"inconclusive: 31.6 µM [inhibitor, single point]",–
Cc1nc2ccccc2c(C)c1CC(=O)N(C)CC(=O)Nc1cccc(F)c1,"inconclusive: 31.6 µM [inhibitor, single point]",–
